According to the supplement of paper PMC10126150:
Values marked as one replicate rest on one cluster of the flow cell; about a third of the high ones do not repeat.
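Further: ATP exposure 15 min at 22 °C before imaging.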

The sequences below were run on ATP (assay: switch fluorescence ratio, 500 uM ATP over buffer (Cy3 cluster intensity, sum of 5 cycles each) (fold (ratio)); higher = stronger signal-on switching upon ATP binding; sequences stand for … in TCGTCGGCAGCGTCAGATGTGTATAAGAGACAGTTTTTTTTTTTTTTTTTTTTTTTTT…TC). Conditions: aptamer strand: ATP DNA aptamer (quencher-CACCTGGGGGAGTATTGCGGAGGAAGG + anchor), 100 nM annealed; ATP concentration: 500 uM; one replicate.
Procedure, shortened: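 The fluorescence ratio divides summed target-cycle Cy3 intensity by summed buffer-cycle Cy3 intensity for each cluster and is averaged per switch-domain sequence. Cy3-labelled switching-strand clusters on a modified Illumina MiSeq flow-cell were annealed to 100 nM quencher-labelled ATP aptamer, then imaged in selection buffer and again after 15 min with 500 uM ATP at 22 °C. Five such cycles were run, with NaOH stripping and re-annealing between them, and clusters outside 100-1000 RFU were excluded.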
CGCATTGGGT showed a switch fluorescence ratio of 1.09. CGCATTTAAC showed a switch fluorescence ratio of 3.72. Work on CGCCAACAGA yielded a switch fluorescence ratio of 1.03. In the case of CGCCAAGCCA, the switch fluorescence ratio is reported as 1.08. In the case of CGCCAGAGTG, the switch fluorescence ratio is reported as 2.03. In the case of CGCCATATCC, the switch fluorescence ratio is reported as 1.82. CGCCATTTGA was tested, and the switch fluorescence ratio was 0.975. For CGCCCATTCC, the switch fluorescence ratio was 1.46. In the case of CGCCCCTCAA, the switch fluorescence ratio is reported as 1.23. In the case of CGCCCCTCGC, the switch fluorescence ratio is reported as 1.35. CGCCCGAAGC was tested, and the switch fluorescence ratio was 2.57. CGCCGGATAA showed a switch fluorescence ratio of 1.1. With CGCCGGCAAG the switch fluorescence ratio was 1.17. For CGCCGGGGA, the switch fluorescence ratio was 0.965. In the case of CGCCGGGTCT, the switch fluorescence ratio is reported as 1.09. With CGCCGGTCTG the switch fluorescence ratio was 0.998. Sequence CGCCGGTTG has a switch fluorescence ratio of 1.02. CGCCGTCGCC showed a switch fluorescence ratio of 1.07. With CGCCTCTCAA the switch fluorescence ratio was 1.6. With CGCCTGTTGT the switch fluorescence ratio was 0.995. In the case of CGCGAGTCAC, the switch fluorescence ratio is reported as 1.61. Sequence CGCGATAAGC has a switch fluorescence ratio of 1.29. For CGCGCAAGTC, the switch fluorescence ratio was 3.57. With CGCGGCACCA the switch fluorescence ratio was 1.02. In the case of CGCGGCTATA, the switch fluorescence ratio is reported as 1.31. CGCGGCTTCT showed a switch fluorescence ratio of 0.996. For CGCGGGAAAC, the switch fluorescence ratio was 1.06. CGCGTAAACG was tested, and the switch fluorescence ratio was 1.02. With CGCGTCGGG the switch fluorescence ratio was 1.01. Sequence CGCGTTACCA has a switch fluorescence ratio of 1.01. CGCGTTCAGC showed a switch fluorescence ratio of 1.01. CGCGTTCCT was tested, and the switch fluorescence ratio was 1.09. For CGCGTTGTTC, the switch fluorescence ratio was 0.992. For CGCTAAAGAG, the switch fluorescence ratio was 1.05. In the case of CGCTAACCTC, the switch fluorescence ratio is reported as 1.61. In the case of CGCTAATATG, the switch fluorescence ratio is reported as 1.49. With CGCTAATCGG the switch fluorescence ratio was 1.09. CGCTAATGAG was tested, and the switch fluorescence ratio was 1.11. CGCTAGGCGT was tested, and the switch fluorescence ratio was 0.991. CGCTCACAAC was tested, and the switch fluorescence ratio was 1.5. CGCTCCCAGG gave a switch fluorescence ratio of 1.62. Sequence CGCTCCGACT has a switch fluorescence ratio of 1.1. Sequence CGCTCTAGCG has a switch fluorescence ratio of 0.958. Sequence CGCTCTCCG has a switch fluorescence ratio of 1.26. Sequence CGCTGAATCT has a switch fluorescence ratio of 1.04. CGCTGAGGGA showed a switch fluorescence ratio of 1.08. CGCTGATGAT was tested, and the switch fluorescence ratio was 0.999. For CGCTGCGGGT, the switch fluorescence ratio was 1.03. CGCTGGCCC showed a switch fluorescence ratio of 1.03. Sequence CGCTGGGACG has a switch fluorescence ratio of 0.988. Sequence CGCTGTGTCT has a switch fluorescence ratio of 1.02. CGCTGTTATT showed a switch fluorescence ratio of 0.992. CGCTTAACTT gave a switch fluorescence ratio of 1.01. Work on CGCTTCATCC yielded a switch fluorescence ratio of 1.72. Work on CGCTTGCGCA yielded a switch fluorescence ratio of 1.04. Sequence CGCTTGCTAC has a switch fluorescence ratio of 2.69. In the case of CGCTTGTCTG, the switch fluorescence ratio is reported as 1.01. Sequence CGCTTTATAG has a switch fluorescence ratio of 1.26. For CGCTTTGCTT, the switch fluorescence ratio was 0.988. Sequence CGCTTTGTGG has a switch fluorescence ratio of 0.975. For CGGAAACATG, the switch fluorescence ratio was 0.993. Sequence CGGAAACCCT has a switch fluorescence ratio of 1.24. CGGAAACGCG was tested, and the switch fluorescence ratio was 1. In the case of CGGAAGAATC, the switch fluorescence ratio is reported as 0.992. For CGGAAGTAGC, the switch fluorescence ratio was 1.06. In the case of CGGAATCTAA, the switch fluorescence ratio is reported as 1.04. For CGGAATCTAG, the switch fluorescence ratio was 1. In the case of CGGACCTAAG, the switch fluorescence ratio is reported as 0.969. In the case of CGGACGACAA, the switch fluorescence ratio is reported as 3. Sequence CGGACGGTGG has a switch fluorescence ratio of 1.01. Work on CGGACGTTCT yielded a switch fluorescence ratio of 0.893. CGGAGAAAGA gave a switch fluorescence ratio of 0.981. For CGGAGATGAC, the switch fluorescence ratio was 1.28. For CGGAGCGAGG, the switch fluorescence ratio was 1.56. Work on CGGAGCGCAT yielded a switch fluorescence ratio of 3.08. CGGAGCGGAC was tested, and the switch fluorescence ratio was 1.01. With CGGAGCTGCG the switch fluorescence ratio was 1.27. Work on CGGAGGAGGC yielded a switch fluorescence ratio of 0.898. CGGAGGAGTC gave a switch fluorescence ratio of 1.01. With CGGAGGATGA the switch fluorescence ratio was 1.03. CGGAGGCCCT was tested, and the switch fluorescence ratio was 1.04. CGGAGGCTCC showed a switch fluorescence ratio of 4.52. With CGGAGGTTCA the switch fluorescence ratio was 0.993. CGGAGTAAGG showed a switch fluorescence ratio of 1.78. CGGAGTGCCA gave a switch fluorescence ratio of 1.01. Work on CGGAGTGTAT yielded a switch fluorescence ratio of 1.17. Sequence CGGATACAAG has a switch fluorescence ratio of 0.983. CGGATACTGG gave a switch fluorescence ratio of 0.959. CGGATCTAAG gave a switch fluorescence ratio of 0.988. For CGGATGACTT, the switch fluorescence ratio was 1.01. Work on CGGATGCTTG yielded a switch fluorescence ratio of 1.07. In the case of CGGATGGTCT, the switch fluorescence ratio is reported as 0.978. Work on CGGCAACGAA yielded a switch fluorescence ratio of 1. Work on CGGCAATCAA yielded a switch fluorescence ratio of 2.19. CGGCACCCGC was tested, and the switch fluorescence ratio was 1.07. With CGGCACTGGT the switch fluorescence ratio was 0.998. In the case of CGGCAGCATG, the switch fluorescence ratio is reported as 1.05. In the case of CGGCAGCTAG, the switch fluorescence ratio is reported as 1.03. For CGGCAGCTT, the switch fluorescence ratio was 1.17. CGGCAGTACG showed a switch fluorescence ratio of 1.8. CGGCATGTAA showed a switch fluorescence ratio of 1.03. CGGCATTCAG gave a switch fluorescence ratio of 1.03. For CGGCATTCTT, the switch fluorescence ratio was 0.991. CGGCCACGAC showed a switch fluorescence ratio of 1.04. Sequence CGGCCATCCA has a switch fluorescence ratio of 0.985. CGGCCCATGG showed a switch fluorescence ratio of 1.02. CGGCCGAAGG gave a switch fluorescence ratio of 1.05. CGGCCGAGGC showed a switch fluorescence ratio of 1.06. CGGCCGATCT gave a switch fluorescence ratio of 0.994. For CGGCGTACAA, the switch fluorescence ratio was 1.02. Sequence CGGCGTCTGT has a switch fluorescence ratio of 1.01. In the case of CGGCTAAATT, the switch fluorescence ratio is reported as 0.986. CGGCTACCTT was tested, and the switch fluorescence ratio was 1.01. Sequence CGGCTATCGC has a switch fluorescence ratio of 1.04. In the case of CGGCTATCT, the switch fluorescence ratio is reported as 1.03. In the case of CGGCTATG, the switch fluorescence ratio is reported as 1.01. For CGGCTCCCCA, the switch fluorescence ratio was 1.44. Sequence CGGCTCTTAT has a switch fluorescence ratio of 0.967. CGGCTGCGGT was tested, and the switch fluorescence ratio was 1.07. Sequence CGGCTGTAGC has a switch fluorescence ratio of 0.981. Work on CGGCTTGCCT yielded a switch fluorescence ratio of 1.02. With CGGGAAAGTG the switch fluorescence ratio was 1.02. CGGGAAGTCC was tested, and the switch fluorescence ratio was 1.01. CGGGAATGTA gave a switch fluorescence ratio of 1.01. Work on CGGGACAAGA yielded a switch fluorescence ratio of 0.978. CGGGACCCTT was tested, and the switch fluorescence ratio was 1.04. CGGGAGATAG was tested, and the switch fluorescence ratio was 0.982. For CGGGAGCGTG, the switch fluorescence ratio was 1.08. For CGGGAGCTAT, the switch fluorescence ratio was 1.39. CGGGAGGGTA gave a switch fluorescence ratio of 1.02. Sequence CGGGATACAG has a switch fluorescence ratio of 1.04. CGGGATAGTG gave a switch fluorescence ratio of 1.02. CGGGATTAAT showed a switch fluorescence ratio of 1.02. CGGGATTCGC showed a switch fluorescence ratio of 1.04. CGGGATTGA was tested, and the switch fluorescence ratio was 1.01. CGGGCACCGC showed a switch fluorescence ratio of 0.872. In the case of CGGGCCCGGA, the switch fluorescence ratio is reported as 1.01. Work on CGGGCGCTGC yielded a switch fluorescence ratio of 1.07. In the case of CGGGCGGATG, the switch fluorescence ratio is reported as 1.05. Sequence CGGGCGTAAG has a switch fluorescence ratio of 1.03. Sequence CGGGCGTAAT has a switch fluorescence ratio of 1.28. With CGGGCTTAGG the switch fluorescence ratio was 0.998. For CGGGCTTATC, the switch fluorescence ratio was 1.01. For CGGGGATCTT, the switch fluorescence ratio was 0.937. Sequence CGGGGCATGA has a switch fluorescence ratio of 0.954. In the case of CGGGGCGGGC, the switch fluorescence ratio is reported as 1.01. In the case of CGGGGGACCA, the switch fluorescence ratio is reported as 0.97. In the case of CGGGGGTCGC, the switch fluorescence ratio is reported as 1. CGGGGTAGGA gave a switch fluorescence ratio of 0.965. For CGGGGTCAGC, the switch fluorescence ratio was 0.984. Work on CGGGGTCTAT yielded a switch fluorescence ratio of 0.95. With CGGGGTGGTC the switch fluorescence ratio was 0.909. CGGGGTGTCG was tested, and the switch fluorescence ratio was 1.15.
